# Source: article PMC6919601, “Identification of Plasmodium dipeptidyl aminopeptidase allosteric inhibitors by high throughput screening” (PLoS ONE, 2019)
# The whole screen tested about 110,000 compounds, of which about 230 (0.21%) showed an effect of 50% or more. Some of the results follow.
# Biological target: DPAP1 (Plasmodium falciparum, UniProt Q8IIJ9)
# Experiment: primary screen, percent inhibition; read by cleavage of a fluorogenic dipeptide substrate; higher = more effect of the substance
# Design: species or system P. falciparum D10 trophozoite lysates; single well
# 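Also: 30 min substrate incubation versus DMSO and 10 µM JCP410 controls.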
# DPAP1, sequence (Q8IIJ9 whole entry, looked up): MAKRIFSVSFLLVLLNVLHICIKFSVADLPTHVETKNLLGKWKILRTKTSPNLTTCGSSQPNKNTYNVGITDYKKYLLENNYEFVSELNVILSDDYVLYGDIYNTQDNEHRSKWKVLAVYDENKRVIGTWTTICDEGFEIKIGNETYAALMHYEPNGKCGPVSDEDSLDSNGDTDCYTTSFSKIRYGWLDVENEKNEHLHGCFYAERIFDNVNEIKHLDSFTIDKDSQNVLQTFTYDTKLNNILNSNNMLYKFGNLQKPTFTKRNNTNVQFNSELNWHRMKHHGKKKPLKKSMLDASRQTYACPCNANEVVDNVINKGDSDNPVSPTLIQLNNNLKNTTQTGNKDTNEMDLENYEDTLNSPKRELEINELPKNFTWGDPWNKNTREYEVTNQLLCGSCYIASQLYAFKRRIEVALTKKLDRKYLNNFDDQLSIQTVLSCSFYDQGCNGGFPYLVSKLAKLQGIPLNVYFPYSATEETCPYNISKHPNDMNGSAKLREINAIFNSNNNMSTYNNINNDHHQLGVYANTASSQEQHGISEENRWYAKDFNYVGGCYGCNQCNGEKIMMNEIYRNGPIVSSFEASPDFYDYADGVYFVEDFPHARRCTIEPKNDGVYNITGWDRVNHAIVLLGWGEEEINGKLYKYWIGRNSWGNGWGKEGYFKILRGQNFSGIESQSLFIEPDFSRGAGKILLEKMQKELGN
row,Compound,% Inhibition @ 10 uM [%]
1,COc1ccc(C2NC(=O)NC(C)=C2C(=O)OCCc2ccccc2)cc1 (stereo not shown),-1.03
2,O=C(c1ccccc1Cl)N1CCN(c2ccc(F)cc2)CC1,-4.3
3,N#CCNC(=O)[C@@H]1CCCC[C@@H]1CS(=O)(=O)c1ccc(S(=O)(=O)CCc2ccccc2)cc1,-1.41
4,Cc1ccc(-n2nc3c(N4CCCC(C(=O)NCc5ccccc5)C4)nnc(C)c3c2C)cc1 (stereo not shown),9.2
5,CN(Cc1ccccc1)C(CNS(=O)(=O)c1ccccc1)c1ccccc1 (stereo not shown),-0.671
6,CC1=C(C#N)C(=O)N(C)C(=O)/C1=C\Nc1cccc2nsnc12,-0.413
7,Cc1sc2ncnc(SCC(=O)c3cc(C)n(CC4CCCO4)c3C)c2c1C (stereo not shown),30.2
8,O=C(c1ccc(COc2ccc(Cl)cc2Cl)o1)N1CCCC1,-2.66
9,Cc1c(C(=O)NCCc2ccc(Cl)cc2)oc2ccc3c(c12)C(O)CC(C)(C)O3 (stereo not shown),-4.97
10,O=S(=O)(c1ccc(Cl)cc1)N1CCN(C/C=C/c2ccccc2)CC1,-2.7
11,Cc1cccc(NC(=O)C2CC2(c2ccccc2)c2ccccc2)c1 (stereo not shown),-1.74
12,CC1=C(C(=O)Nc2ccc(Cl)cc2)C(c2ccccc2Br)NC(=O)N1 (stereo not shown),-3.01
13,COc1ccc(C2CC(c3ccccc3)=NN2C(C)=O)cc1 (stereo not shown),-7.15
14,Cc1ccc(-c2onc(C)c2C)cc1S(=O)(=O)NC1CCCc2ccccc21 (stereo not shown),3.03
15,c1ccc(N2CCN(Cc3ccc4ccccc4c3)CC2)nc1,-7.42
16,CC1CN(Cc2ccc(F)cc2)CC(C)O1 (stereo not shown),-0.636
17,COc1cccc2cc(C(=O)Nc3nc(-c4ccccc4)cs3)c(=O)oc12,1.95
18,COCCCNC(=O)c1nn(C)c2c1CSc1ccccc1-2,9.28
19,CCc1ccc(C2=CC(c3ccccc3C)n3nnnc3N2)cc1 (stereo not shown),-1.62
20,O=C(Cn1ncc2ccsc2c1=O)N1CCN(Cc2ccccc2)CC1,-1.43
21,CC(C)CCNC(=O)C(=O)NCc1ccccc1Cl,4.69
22,CCN(CC)C(=O)C1CCCN(Cc2cc(Br)c(OC)cc2OC)C1 (stereo not shown),0.605
23,CC(C)=CCC[C@H](C)CCN1CCN(CCOCCO)CC1,-1.75
24,N=C(NC(=O)c1ccccc1Br)Nc1nc2ccccc2o1,-12.2
25,CCOc1cc2c(cc1/C=C1/S/C(=N\c3ccccc3)N(CC3CCCO3)C1=O)OCO2 (stereo not shown),1.1

row,Compound,% Inhibition @ 10 uM [%]
1,CCOc1cc(/C=C2\CCCC(C(=O)C(F)(F)F)=C2O)ccc1O,0.413
2,CN1c2ccccc2-c2ccccc2C12C=Cc1ccccc1O2 (stereo not shown),0.215
3,O=C(CCCN1C(=O)c2ccccc2C1=O)Nc1ccc(C(=O)O)cc1,-1.22
4,CC(CNC(=O)CCCn1ncn2c(cc3occc32)c1=O)c1ccccc1 (stereo not shown),-3.79
5,Cc1ccc(C2C3=C(O)CC(C)(C)CC3=Nc3ncnn32)cc1 (stereo not shown),-2.92
6,c1ccc(CN2CN(c3nccs3)CN(c3nccs3)C2)cc1,-1.72
7,C=CCc1cccc2cc(C(=O)NCCc3c(C)[nH]c4ccc(C)cc34)c(=O)oc12,-2.5
8,Cc1ccc(Nc2ncc(F)c(N3CCOCC3)n2)c(C)c1,3.35
9,COc1cccc(OC)c1C(=O)NC(C)C12CC3CC(CC(C3)C1)C2 (stereo not shown),2.03
10,Cc1ccc(SC(C)C(=O)Nc2ccc3c(c2)OCCO3)cc1 (stereo not shown),6.24
11,O=C(c1cc2c(s1)-c1ccccc1OC2)N1CCC2(CC1)OCCO2,-4.85
12,N#Cc1ccc(NC(=O)c2sc3nc4c(cc3c2N)CCC4)cc1,4.42
13,Cc1ccc(C2SCC(=O)N2c2ccc(C)cc2)cc1 (stereo not shown),2.13
14,Cc1ccc(C(=O)Nc2ccc(S(=O)(=O)N3CCC(C)CC3)cc2)cc1Br,0.83
15,CCC(C)N1C(=O)S/C(=C/c2cc(Cl)c(O)c(OC)c2)C1=O (stereo not shown),3.71
16,Cc1[nH]c2ccc(C(=O)N3CCN(c4ncccn4)CC3)cc2c1C,-3.02
17,O=C(CSC1=NCCS1)NCc1ccco1,6.51
18,CC(C)c1ccccc1NC(=O)Cc1cccs1,4.03
19,CCOC(=O)c1c(C)[nH]c(C)c1S(=O)(=O)N(C)CC(=O)Nc1nc2ccc(Cl)cc2s1,-0.695
20,COc1cc(-c2cc(C(=O)O)c3cc4c(cc3n2)OCCO4)cc(OC)c1OC,3.67
21,CCOc1ccc(C(=O)Nc2ccc(CN3CCOCC3)cc2)cc1,-4.82
22,Cc1ccc(CNC(=O)Cn2c3c(c(-c4ccccc4Cl)cc2=O)CCC3)cc1,-1.46
23,Clc1ccccc1CN1CCOCC1,-4.14
24,COc1ccc(S(=O)(=O)N(C(=O)c2ccccc2)c2ccc3oc(C)c(C(C)=O)c3c2)cc1,-1.16
25,O=C1/C(=C/c2ccccc2)N=C(N2CCCCC2)N1c1ccccc1,0.0504

row,Compound,% Inhibition @ 10 uM [%]
1,COc1ccc(-c2cc(C(=O)Nc3c(C)nn(Cc4ccccc4C)c3C)no2)cc1OC,-3.12
2,Cc1cc(NC(=O)C(C)Sc2nc(=O)cc(N)n2CCc2ccccc2)no1 (stereo not shown),16
3,CCn1c(=N)n(CC(=O)c2ccc(F)cc2)c2ccccc21,0.206
4,O=C(CC(=O)c1ccccc1O)c1cccs1,-8.67
5,CC(C)C[C@H](NC(c1ccc(-c2ccc(F)cc2F)cc1)c1nccs1)C(=O)NC1(C#N)CC1 (stereo partly shown),-1.41
6,COc1cc(C(=O)NCCC(=O)NC2CCCCC2)cc(OC)c1OC,-2.26
7,Cc1c(C#N)c(N)c(C(=O)c2ccccc2)n1-c1ccc(Br)cc1,2.38
8,CC1CCCC(NC(=O)C(Cc2ccccc2)n2cccc2)C1C (stereo not shown),2.6
9,COc1cc2c(cc1OC)C(c1cc(OC)c(OC)cc1[N+](=O)[O-])N(C(C)=O)CC2 (stereo not shown),4.45
10,COCCCn1c(CCC(=O)O)ccc1-c1ccc(Cl)cc1,0.558
11,COc1ccc(-c2csc3ncn(CC(=O)NC4CCCCC4)c(=O)c23)cc1OC,5.14
12,Cc1ccc(CNC(=O)C2(S(=O)(=O)c3ccc(C)cc3)CC2)cc1,1.76
13,CCC(C)NC(=O)C1CCCN(S(=O)(=O)c2c(C)noc2/C=C/c2cccs2)C1 (stereo not shown),-9.16
14,CC1CCN(S(=O)(=O)c2cc(C(=O)O)ccc2Br)CC1,0.827
15,CN1CCN(Cc2coc3ccccc3c2=O)CC1,4.81
16,CCCN1C(=O)S/C(=C\c2ccc(N3CCOCC3)o2)C1=O,-3.41
17,O=C(O)C1C2C=CC(C2)C1C(=O)NCCCc1ccccc1 (stereo not shown),4.11
18,O=C(O)c1cnc2ccc(S(=O)(=O)NC3CCCCNC3=O)cc2c1O (stereo not shown),1.17
19,Cc1cccc(N2C(=O)NC(=O)/C(=C\c3ccco3)C2=O)c1,-1.15
20,C=CCOc1ccccc1CNc1cccc(C(=O)O)c1,2.02
21,O=C1C(c2ccc(Cl)cc2)N(C2CCCCC2)C(=O)CN1C1CCCCC1 (stereo not shown),-7.73
22,CCCS(=O)(=O)NCc1cn2c(C)csc2n1,0.953
23,Cc1cc(C)n(-c2nc3cc(Cl)ccc3nc2NCCN2CCOCC2)n1,4.83
24,O=C(NCc1ccccc1)C(=O)NCc1ccc2c(c1)OCO2,1.96
25,CCOC(=O)N1CCC(NC(=O)c2cc3c(-c4ccccc4F)nn(C)c3s2)CC1,-1.43

row,Compound,% Inhibition @ 10 uM [%]
1,Cc1cccc2c1-c1sc(C(=O)NCc3ccco3)cc1CO2,-1.37
2,CC(=O)N1CCc2c(sc3nc(SCCC(C)C)n(Cc4ccco4)c(=O)c23)C1,-1.71
3,CCOc1ccccc1CNC(=O)C(C)n1nc(C)c2sc3ccccc3c2c1=O (stereo not shown),-1.17
4,CC1CCCC(C)N1S(=O)(=O)c1ccc(S(=O)(=O)N2CCN(c3ncccn3)CC2)cc1 (stereo not shown),-2.92
5,CCOc1ccccc1NC(=O)C1CCCCC1,1.19
6,COc1ccc(S(=O)(=O)N(C)CC(=O)Nc2ccc(Br)cc2F)cc1OC,-4.12
7,O=C(COc1ccc2ccccc2c1Br)NCc1ccccc1,-0.652
8,CC(=O)c1cccc(NC(=O)/C=C/c2ccc([N+](=O)[O-])cc2)c1,6.43
9,CCN(CC)c1ccc(NC(=O)c2ccc3c(c2)OCCO3)cc1,0.993
10,COc1ccc(CN2CCN(C)CC2)c(OC)c1,1.43
11,OC1=C2C(=Nc3ncnn3C2c2ccco2)CC(c2ccccc2)C1 (stereo not shown),0.032
12,Cc1ccc(-n2c3c(c(=O)[nH]c2=O)C(NC(=O)c2ccc(Cl)cc2)(C(F)(F)F)C(=O)N3)cc1C (stereo not shown),-1.22
13,c1ccc(-c2cc(N3CCCCC3)nc3ccccc23)cc1,2.66
14,Cc1ccccc1Cn1cc(NC(=O)c2cc3ccccc3oc2=O)cn1,7.04
15,Cc1ccsc1-c1nc(CSCC(=O)NCc2ccc(Cl)cc2)c(C)o1,2.37
16,CCCCOc1ccc(NC(=O)/C=C/C(=O)O)cc1,0.878
17,Cc1ccc(-c2cc(C(=O)Nc3ccccc3C(N)=O)c3ccccc3n2)cc1,0.188
18,CC1CCCCN1C(=O)Cn1cc(C(=O)C2CC2)c2ccccc21 (stereo not shown),3.25
19,Cc1cccc(CSCCNC(=O)CN2C(=O)c3cccc4cccc2c34)c1,-2.16
20,Cc1c(CC(=O)NCc2ccco2)c(=O)oc2c(C)c(O)ccc12,5.68
21,CC(NC(=O)c1cc(C2CC2)on1)c1ccccc1 (stereo not shown),-8.56
22,CCCCCNC(=O)c1nnn(-c2cccc(C(F)(F)F)c2)c1N,1.24
23,Cc1ccc(/C=C2\C(=N)N3N=C(N4CCOCC4)SC3=NC2=O)cc1,1.51
24,Cn1c(-c2ccccn2)nc2ccccc21,3.44
25,CCCCC(=O)Nc1sc2c(c1C(=O)OCC)CCC/C2=N\O,7.33
